The structures appear in SMILES notation. The whole screen tested about 43,000 compounds, of which about 200 (0.47%) were called active. Another 12% or so got no clear call; they are omitted. Calls come from the whole dose curve; as a rule, active = well fitted cell-killing curve with a large enough effect; inconclusive = small, poorly fitted or top-dose-only effect, or effect the other way; inactive = flat fitted curve, though single readings scatter. The list shows a part of the results.
% is set by controls: 0 for no effect and ±100 for the full control effect.

The nature of the assay: Cell viability qHTS assay in S16 Pmp22-F2sN cells. Note: nearly all actives have a fitted effect of over 65% in size. To be noted: S16 Pmp22-F2sN Schwann cells viability, CellTiter-Glo, 24 h; series mostly up to 57.5 µM; activity change, negative = cytotoxicity: at the top concentration. In a few lines: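 S16 Pmp22-F2sN Schwann cells (500-1,000/well) in phenol-red-free DMEM with 10% FBS received 23 nL compound by pin tool for 24 h at 37 °C. Viability was then read as CellTiter-Glo luminescence after 15 min at room temperature.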
In general terms: In qHTS, concentration-response curves come from the screen itself.
With `NC(=O)c1cc(S(=O)(=O)NCc2ccccc2)cs1`, the “activity change, negative = cytotoxicity” value was inactive: 0.797%. In the case of `C=Cc1ccc(CSc2nc(-c3ccc(OC)cc3)nc3c2Cc2c(CO)cnc(C)c2O3)cc1` it was inactive: -14.2%.

On to `CCOC(=O)CSc1nc2cc3c(cc2c(=O)n1CCCC(=O)NCc1ccc2c(c1)OCO2)OCO3`, for which the “activity change, negative = cytotoxicity” value was inactive: 14.6%. The same measure for `Cc1ccc(NC(=O)CN2CCCN(Cc3cc(C)ccc3C)S2(=O)=O)c(Cl)c1`: inactive: -18.9%. For `COc1cccc(N2CCN(C(=O)C3CCC(CNS(=O)(=O)c4ccc(Br)s4)CC3)CC2)c1` (stereo not drawn), the “activity change, negative = cytotoxicity” value is inactive: -17.1%. Regarding `COCCCNC(=O)Cn1c(=O)n(-c2ccc(C)cc2)c(=O)c2c1c1cc(C)ccc1n2C`, the “activity change, negative = cytotoxicity” value was inactive: -2.36%. The same measure for `CCS(=O)(=O)N1CC(=O)N(c2ccccc2C)C(C)(C(=O)NC2CCCCC2)C1` (stereo not drawn): inactive: -3.97%; for `CN(C)c1ccc(C(CNC(=O)COc2ccc(Cl)cc2)N2CCOCC2)cc1` (stereo not drawn): inactive: 11.4%; for `Cc1ccc(Cl)cc1N1CCN(C(=O)c2cn(C3CCCCC3)c(=O)c3c2c2ccccc2n3C)CC1`: inactive: 1.22%. For `CC(C)(C)NS(=O)(=O)c1ccc2nc(NC(=O)c3cccnc3)sc2c1`, the “activity change, negative = cytotoxicity” value was inactive: -0.533%. In the case of `COC(=O)CNC(=O)Nc1cc(C(=O)NCc2ccc(C)cc2)ccc1N1CCCC1` it was inactive: 1.74%; in that of `COc1cc(C2NC(=O)NC(C)=C2C(=O)Nc2cc(C)cc(C)c2)ccc1O` (stereo not drawn), inactive: 11.4%. For the molecule `CCOC(=O)c1c(C)c(-c2ccccc2)n(CC(=O)Nc2cc(OC)cc(OC)c2)c1C`, the “activity change, negative = cytotoxicity” value is inactive: -21.7%.

Regarding `CC(C)(C)c1cc(C(C)(C)C)c2oc(=O)c(-c3nc4ccccc4[nH]3)cc2c1`, the “activity change, negative = cytotoxicity” value is inactive: 13.8%.

As for `O=C(CSc1nc2ccccc2c2nc(-c3ccccc3)nn12)Nc1ccc(Br)cc1`, the “activity change, negative = cytotoxicity” value was inactive: 3.98%. Turning to `Cc1ccc(Cn2c(SCC(=O)NCc3ccc(Cl)cc3)nc3ccsc3c2=O)cc1`, the “activity change, negative = cytotoxicity” value was inactive: 21.7%. The same measure for `CCc1cc(C(=O)Nc2c(C)nn(Cc3ccc(C)cc3)c2C)no1`: inactive: -9.57%; for `COC(=O)C1CCN(S(=O)(=O)c2cc3c4c(c2)C(C)C(=O)N4CCC3)CC1` (stereo not drawn): inactive: -4.29%; for `CC(=O)N1c2ccccc2CC1C(=O)N1CCN(c2ccc(F)cc2)CC1` (stereo not drawn): inactive: -0.955%. As to `COc1ccc(C)cc1NC(=O)c1oc2ccc(S(=O)(=O)N(C)C3CCCCC3)cc2c1C`, the “activity change, negative = cytotoxicity” value is inactive: -0.756%. The same measure for `O=C(Nc1ccc(F)cc1F)c1ccc(CN2CC(=O)N3CCCCC3C2=O)cc1` (stereo not drawn): inactive: 2.78%; for `CCOc1ccccc1CNC(=O)Nc1cn(CC(C)C)c(=O)c2ccccc12`: inactive: -11.5%.

For the molecule `Cc1ccc(OCc2nc3ccccc3n2CC(C)C)cc1`, the “activity change, negative = cytotoxicity” value is inactive: -0.594%. The same measure for `COc1ccc(CCNC(=O)CCn2c(=O)c3cccn3c3ccc(F)cc32)c(OC)c1OC`: inactive: 5.71%; for `COc1ccc(N(CC(=O)NC(C)c2ccccc2)S(=O)(=O)c2c(C)noc2C)cc1` (stereo not drawn): inactive: -0.536%. In the case of `CCCN(C(=O)c1cc2c(s1)-c1ccccc1SC2)c1ccccc1F` it was inactive: -5.06%; in that of `CC1(c2ccc(Cl)cc2)CC(C)(C)N(C(=O)c2ccccc2)c2ccccc21` (stereo not drawn), inactive: -28.6%; in that of `CC(Oc1ccccc1)C(=O)Nc1nc2ccc(S(N)(=O)=O)cc2s1` (stereo not drawn), inactive: -15%. In the case of `Cc1cc2c(cc1S(=O)(=O)NCc1ccc(N(C)C)cc1)OCC(=O)N2` it was inactive: 0.488%. In the case of `COc1cccc(-n2ccnc2SCC(=O)Nc2cccc(C)c2C)c1`, the “activity change, negative = cytotoxicity” value is inactive: 7.87%. Consider `COc1ccc(-n2ncc(C(=O)NCc3ccccc3)c2C2CCN(C(=O)OC(C)(C)C)CC2)cc1`, for which the “activity change, negative = cytotoxicity” value was inactive: -22.8%. The same measure for `CCc1ccc(NC(=O)Cn2cnc3sc(C)c(S(=O)(=O)N4CCC(C)CC4)c3c2=O)cc1`: inactive: -9.13%; for `CCCC(=O)NCC(c1ccc2c(c1)OCO2)N1CCN(c2ccc(F)cc2)CC1` (stereo not drawn): inactive: -0.238%.

As to `O=c1c2c3c(sc2nnn1Cc1ccc(Br)cc1)CCCC3`, the “activity change, negative = cytotoxicity” value is inactive: 4.16%. The same measure for `CCOc1ccccc1NC(=O)Cn1c(=O)ccc2cc(S(=O)(=O)N3CCC(C)CC3)ccc21`: inactive: -12.2%. The same measure for `CCOC(=O)c1ccc(NC(=O)CCc2c(C)nc3c(c(C)nn3C)c2C)cc1`: inactive: 4.41%; for `CC(=O)c1ccc(N2CCN(C(=O)C3CCN(S(=O)(=O)c4cccc5nonc45)CC3)CC2)cc1`: inactive: 3.47%. `O=C(c1cc2ccccc2oc1=O)N(Cc1cccc(Cl)c1)C1CCS(=O)(=O)C1` (stereo not drawn): the “activity change, negative = cytotoxicity” value is inactive: 1.71%.

In the case of `CCOC(=O)C1CCN(C(=O)C2COc3ccccc3C2)CC1` (stereo not drawn), the “activity change, negative = cytotoxicity” value was inactive: -1.22%. Consider `Cc1ccc(OCCCn2c(C3CC(=O)N(c4cccc(Cl)c4)C3)nc3ccccc32)c(C)c1` (stereo not drawn), for which the “activity change, negative = cytotoxicity” value was inactive: -12.3%. For the molecule `CCOc1ccc(CNC(=O)c2ccc3nc(Cc4ccc(OC)cc4)oc3c2)cc1OC`, the “activity change, negative = cytotoxicity” value is inactive: -9.03%. The same measure for `CCOC(=O)c1ccc(NC(=O)CC2C(=O)N(c3ccccc3)C(=O)N2Cc2cccs2)cc1` (stereo not drawn): inactive: -1.44%. The same measure for `Cc1ccc2c(CNCCc3ccc(Cl)cc3)c(C(=O)O)n(Cc3ccc(F)cc3)c2c1`: inactive: -1.86%; for `COc1ccc(N2CCN(CC(O)COc3ccc(C(C)(C)C)cc3)CC2)cc1` (stereo not drawn): inactive: 0.658%. For the molecule `Cc1ccc(S(=O)(=O)c2[nH]c(-c3ccccc3)nc2SCC(=O)O)cc1`, the “activity change, negative = cytotoxicity” value was inactive: -2.58%. For the molecule `CC(C)Cc1nn2c(=O)cc(COC(=O)c3ccc(NC(=O)c4cccs4)cc3)nc2s1`, the “activity change, negative = cytotoxicity” value is inactive: -1.17%. As for `CCN(C(=O)Cc1c(C(=O)O)[nH]c2ccccc12)c1ccc(OC)cc1`, the “activity change, negative = cytotoxicity” value was inactive: -4.27%. Take `Cc1ccc(Cl)cc1NC(=O)c1ccc(-c2nc(CSc3ccccc3)c(C)o2)cc1`: the “activity change, negative = cytotoxicity” value is inactive: -25.4%.

The record behind these values is PubChem BioAssay AID1508642 (National Center for Advancing Translational Sciences (NCATS), 2021).
